Data from PubChem BioAssay AID493014 (National Center for Advancing Translational Sciences (NCATS), 2011).
Screen size: about 340,000 compounds; about 170 (0.05%) were called active. Roughly 26% stayed inconclusive and do not appear here. Calls come from the whole dose curve; as a rule, active = well fitted inhibition curve with a large enough effect in the signal ratio, with a control signal flat (not every such curve was filed as active); inconclusive = small, poorly fitted or top-dose-only effect, or effect the other way, or a change in a side signal; inactive = flat fitted curve, though single readings scatter; the % refers to the signal ratio. Only a part is listed here, and it is no random draw.

assay: qHTS Assay to Find Inhibitors of Chronic Active B-Cell Receptor Signaling; settings: ABC-DLBCL IkBa-CBG/CBR reporter, luminescence ratio (green luciferase fused to IkBa over red control in TMD8 lymphoma cells), 4 h; series mostly up to 46.1 µM; activity change, negative = inhibition: at the top concentration;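 for activity change, negative = inhibition: plate controls were basal doxycycline-induced cells for no effect and cells given 10 µM MG132 for full effect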
How it was run: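 Compounds up to 46 uM were incubated four hours with TMD8 cells whose green CBG68 luciferase is fused to IkappaBalpha; red CBR luminescence normalised the signal, and concentration-effect curves were fitted to fusion, red and ratio data.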
Potency is the fitted concentration of half-maximal effect.

Activity change, negative = inhibition, inactive:
O=C(O)C/C=C(/NC(=O)OCc1ccccc1)C(=O)OCc1ccccc1 7.24%
CC1CC(Nc2ccccc2)c2ccccc2N1C(=O)c1cccnc1 (stereo not drawn) -17.4%
N#C/C(=C\c1cn(CC(=O)O)c2ccccc12)C(=O)NCc1ccccc1 1.99%
COc1ccccc1[C@@]1(C)ON(c2ccccc2C(F)(F)F)C1=O 1.11%
CC(C)(C)OC(=O)C[C@@H]1C/C=C\C[C@@H](CC(=O)N[C@@H](CO)Cc2ccccc2)C(=O)N2CCC[C@H]2COC1=O -1.12%
CC(C)(C)[C@H]1C=C(C(=O)NC2CC2)O[C@@H](OCc2ccc(CO)cc2)C1 0.472%
COC(C[C@H]1O[C@H]1[C@H](O)[C@H](C)OCc1ccccc1)OC -1.07%
O=C(c1ccccc1)c1ccccc1C(=O)c1ccccc1 -6.61%
Cc1ccc(NC(=O)C2CCN(S(=O)(=O)c3ccc4c(c3)CCCC(=O)N4)CC2)c(Br)c1 2.7%
C[C@H](C(=O)O)c1n[nH]c(=O)c2ccccc12 -0.501%
C[C@]12C(=O)N(c3ccc(F)cc3)C(=O)N1[C@@H]1c3ccccc3OC[C@@H]1[C@H]2c1ccccc1 -2.27%
COC(=O)Cc1csc(N)n1 -7.34%
C[C@H](NC(=O)[C@@H]1Cc2ccccc2CN1)C(=O)Nc1ccc2c(c1)OCCO2 10.4%
C[C@H](CO)N1C[C@H](C)[C@@H](CN(C)S(=O)(=O)c2ccccc2)Oc2c(NC(=O)Nc3ccc(C(F)(F)F)cc3)cccc2C1=O -0.0005%
O=C(O)c1cccnc1SCc1cccc(Cl)c1 0.555%
Cc1cccc(CNc2ncnc3ccc(-c4ccccc4Cl)cc23)c1 -8.17%
C=CC[C@H](CC(=O)N[C@H](CO)Cc1ccccc1)C(=O)N[C@H](COC(=O)[C@@H](CC=C)CC(=O)OC(C)(C)C)Cc1c[nH]c2ccccc12 1.7%
C=CCC[C@@H](Cc1ccc(F)cc1)C(=O)OCCNC(=O)[C@@H](CC=C)CC(=O)N[C@@H](CO)Cc1ccccc1 -1.41%
C=CC[C@H](CC(=O)NCCO)C(=O)N[C@@H](COC(=O)[C@@H](CC=C)Cc1ccc(F)cc1)Cc1ccccc1 -0.61%
Cc1csc(=Nc2ccccc2)n1C -1.74%
C=CCOC(=O)C1=C[C@@H](c2coc3ccccc3c2=O)[C@H](CCCO)[C@@H](OCC)O1 1.51%
COc1ccc(/C=C2\N=C3CCCCCN3C2=O)cc1 -27.5%
CC(C)CN(CCCNC(=O)CN1N=C(c2ccc(Cl)cc2)CCC1=O)CC(C)C -1.33%
COc1ccc(C(=O)NC(C(=O)NCCc2ccc3c(c2)OCCO3)C(C)C)cc1 (stereo not drawn) -14.2%
C=CCC[C@H](Cc1ccc(F)cc1)C(=O)OC[C@H](Cc1c[nH]c2ccccc12)NC(=O)[C@H](CC=C)CC(=O)N[C@H](CO)Cc1ccccc1 2.62%
O=C1CCC(N2C(=O)c3ccccc3C2=O)C(=O)N1 (stereo not drawn) -5.13%
O=C1N[C@@H](Cc2c[nH]c3ccccc23)COC(=O)[C@@H](Cc2ccc(F)cc2)C/C=C\C[C@H]1CC(=O)N(CCO)Cc1ccccc1 -2.73%
O=C(C[C@@H]1C/C=C\CC[C@@H](Cc2ccc(F)cc2)C(=O)OC[C@@H]2CCCN2C1=O)N[C@H](CO)Cc1ccccc1 -1.86%
O=C(C[C@H]1C/C=C\CC[C@H](Cc2ccc(F)cc2)C(=O)OC[C@H]2CCCN2C1=O)N[C@H](CO)Cc1ccccc1 -6.94%
O=C1N=C(N2CCN(c3ccccc3)CC2)S/C1=C\c1ccco1 0.052%
O=C(O)/C=C\C(=O)Nc1ccc(OC(F)F)cc1 8.13%
CCOC(=O)[C@@H]1[C@H]2COc3cc(OC)ccc3[C@@H]2N2C(=O)N(c3cccc(F)c3)C(=O)[C@@]12C -5.48%
Oc1ccc(CNc2ccccc2F)c2cccnc12 -8.12%
C#Cc1ccc([C@@H]2C=C(C(=O)O)O[C@H](OCc3ccc(CO)cc3)C2)cc1 -7.86%
NC1=NC[C@H](Cc2ccc(O)cc2)N1CCc1cccc2ccccc12 -3.05%
COC(=O)CCCC[C@@H]1SC[C@@H](NC(=O)OC)[C@@H]1NC(=O)OC -2.72%
CCOC(=O)[C@@H]1[C@H]2COc3cc(OC)ccc3[C@H]2N2C(=O)N(c3ccc(Cl)cc3)C(=O)[C@]12C -2.33%
O=C(O)C1=C[C@@H](c2csc3ccccc23)C[C@@H](OCCCCO)O1 -19.2%
COCCN=C1N[C@@H](c2ccc(Br)cc2)C(C(=O)OC)=C(C)N1Cc1ccccc1 10%
Clc1ccccc1CN1CCN(/N=C/C=C/c2ccco2)CC1 0.437%
CC(=O)c1ccc(-c2csc(N3CCC(C(N)=O)CC3)n2)cc1 -0.811%
CC(C)(C)[C@H]1C=C(C(=O)N2CCN(Cc3ccc4c(c3)OCO4)CC2)O[C@@H](OCc2ccc(CO)cc2)C1 -15.4%
O=C(O)c1ccc2c(c1)C(=O)N(C(Cc1ccccc1)C(=O)O)C2=O (stereo not drawn) -0.787%
COc1ccc(NC(=O)CN2C(=O)COc3ccc(S(=O)(=O)N4CCCCCC4)cc32)cc1 5.98%
Cc1ccsc1/C=C1\SC(N2CCOCC2)=NC1=O -13.7%
O=C(C1=C[C@H](c2ccc(C(F)(F)F)cc2)C[C@H](OCCCCO)O1)N1CCN(Cc2ccccc2)CC1 -5.15%
NC1=NC[C@H](Cc2ccc(O)cc2)N1CC1CCCCC1 -1.33%
O=C(CCN1C(=O)/C(=C\c2ccccc2)SC1=S)NNC(=O)c1cccnc1 -0.0566%
O=C(C[C@@H]1C/C=C\C[C@H](NC(=O)OCC2c3ccccc3-c3ccccc32)C(=O)OC[C@H]2CCCN2C1=O)N[C@H](CO)Cc1ccccc1 -19.3%
CC(=O)Nc1ccc(NC(=O)CCSCCc2ccccn2)cc1 9.27%
CC(=O)C[C@H](O)CC(=O)[C@H]1OC(=O)CCCCCCCCc2ccccc21 1.36%
CCOC(=O)c1c(O)cc(C)[nH]c1=O 12.8%
C[C@]12C(=O)N(c3ccc(Br)cc3)C(=O)N1[C@@H]1c3ccccc3OC[C@@H]1[C@H]2c1ccccc1 -3.55%
CC(C)(C)[C@@H]1COC(=O)[C@@H](Cc2ccc(F)cc2)CC/C=C\C[C@@H](CC(=O)N(CCO)Cc2ccccc2)C(=O)N1 -2.26%
C#CCNC(=O)C1=C[C@H](c2csc3ccccc23)[C@@H](CCCO)[C@H](OCC)O1 6.03%
c1nc(NCc2ccc3c(c2)OCO3)c2cc(-c3ccoc3)ccc2n1 -2.44%
Cc1c(Cl)cnc(NC(=O)COC(=O)C(NC(=O)c2ccco2)C(C)C)c1Cl (stereo not drawn) 1.5%
COC(=O)C1=COC(C)C2CN3CCc4c([nH]c5ccccc45)C3CC12 (stereo not drawn) -1.28%
OCC[C@H]1C[C@H](O)[C@@H](O)[C@]2(CCc3ccccc3CO2)O1 0.72%
Cc1ccc(C(=O)N/C(=C/C=C\c2ccccc2)C(=O)NCc2ccco2)cc1 -0.333%
CCCNC(=O)c1ccc2c(c1)nc(C)n2-c1cccc(C)c1 -0.183%
Oc1c(C=C2N=c3ccccc3=N2)sc(=S)n1C1CCCCC1 8.34%
C[C@@H]1NC(=O)[C@@]2(C)[C@@H](c3ccccc3)[C@H]3COc4ccccc4[C@@H]3N2C1=O -0.3%
CS(=O)(=O)c1cccc(-c2csc(N3CCC(C(N)=O)CC3)n2)c1 -4.45%
Cc1cccc(N2C(=O)N3[C@@H]4c5ccccc5OC[C@@H]4[C@@H](c4ccccc4)[C@]3(C)C2=O)c1 20.5%
COc1ccc([C@@H]2CC(=O)c3c(O)cc(O[C@@H]4OC(CO[C@@H]5OC(C)[C@H](O)[C@H](O)C5O)[C@@H](O)[C@@H](O)C4O)cc3O2)cc1O (stereo partly drawn) 2.71%
CC1(/[N+]([O-])=C\c2ccccc2F)CCCCC1=O (stereo not drawn) 3.75%
CCOc1cc(/C=C2\NC(=O)NC2=O)cc([N+](=O)[O-])c1O 12.3%
C=CC[C@H](CC(=O)N(CCO)Cc1ccccc1)C(=O)NCCOC(=O)[C@@H](CC=C)Cc1ccc(F)cc1 -0.934%
CC(=O)c1cc2c(cc1N/C(=N/S(=O)(=O)c1ccc(C)cc1)c1ccc(Cl)cc1)OCO2 1.33%
Cc1cc(C)c2c(c1)[C@@H]1C=CC[C@@H]1[C@H](c1ccc(S(=O)(=O)N3CCOCC3)cc1)N2 -0.869%
CCO[C@@H]1OC(C(=O)NCc2ccccc2)=C[C@H](c2ccc(C(F)(F)F)cc2)[C@H]1CCCO 21.9%
COC(C[C@H]1O[C@H]1[C@H](O)COCc1ccccc1)OC 3.36%
O=C(C1=C[C@H](C2CC2)C[C@H](OCCCCO)O1)N1CCOCC1 11%
CC(=O)[C@H]1CC[C@H]2[C@@H]3CC=C4C[C@@H](O)CC[C@]4(C)[C@H]3CC[C@]12C -1.13%
C=CC[C@H](CC(=O)N(CCO)Cc1ccccc1)C(=O)N[C@H](COC(=O)[C@@H](CC=C)CC(=O)OC(C)(C)C)Cc1ccccc1 -0.322%
C/C=C(/C)C(=O)OC1c2c(ccc3ccc(=O)oc23)OC(C)(C)C1OC(=O)/C(C)=C\C (stereo not drawn) 13.7%
CN1CCN(C(=O)CCN2C(=O)/C(=C/c3ccc(F)cc3)SC2=S)CC1 -1.59%

Potency, inactive:
C#C[C@]1(O)CC[C@H]2[C@@H]3CCC4=CC(=O)CC[C@@H]4[C@H]3CC[C@@]21CC

Potency, active:
O=C(Oc1c(Cl)cc(Cl)c2cccnc12)c1cccc([N+](=O)[O-])c1 20.6 µM
Cc1ccccc1OCCn1cnc2c(N)ncnc21 18.4 µM
Cc1ccc(/C=[N+](\[O-])c2ccc(N(C)C)cc2)c2nsnc12 10 µM
CCOc1ccc(C2=Nn3c(nnc3-c3ccc(OC)cc3)SC2)cc1 12.6 µM
COc1ccc(C2=Nn3c(nnc3-c3ccccc3OC)SC2)cc1OC1CCOC1 (stereo not drawn) 8.2 µM
Cn1cc(/C=N/n2cnc3scc(-c4ccc(Cl)cc4)c3c2=O)c2ccccc21 3.55 µM
COc1ccc(Cn2c(=O)c3[nH]cnc3n(-c3ccccc3C)c2=O)cc1 15.8 µM
Oc1ccc(COC2CCCC2)c2cccnc12 7.31 µM
COc1cc(/C=C2\OC(=O)c3c(OC)cccc32)ccc1O 9.2 µM
